Several values for one entry are separate records, joined by “and”; a condition that tells them apart may be missing. Equal entries are not always repeated. The inconclusive results got no clear call from the source; some entries with a clear call stand among them for comparison. For some assays here: Potencies beside an inconclusive call are fits to weak or partial responses and may not hold up. Activity calls are given as the source filed them. Unless noted, the call rests on the fitted dose curve; in most records, active means well fitted curve in the direction sought with a large enough effect in the repeat runs; inconclusive means weak or mixed curves; inactive means no such curve, though single readings can be large; an effect the other way counts as inactive or inconclusive.
Assays:
[1] = molecular target: Estrogen receptor beta (Homo sapiens) (UniProt Q92731); experiment: qHTS assay to identify small molecule agonists of the estrogen receptor beta (ER-beta) signaling pathway (AID 1259377; active means well fitted activation curve with a large enough effect in the signal ratio in the repeat runs, not every such curve was filed as active; inconclusive means weak or mixed curves, or effect the other way; the % refers to the signal ratio; further: potency means the concentration at half of the fitted maximal effect; on activation: on the % scale 0 is the no-effect control and ±100 the full control effect); conditions: ER-beta-UAS-bla HEK293T, beta-lactamase FRET ratio, 16 h; activation: at 92.4 µM (top of the series) unless noted
In short: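 Agonist mode cell assay in GripTite HEK293T cells expressing an ER-beta fusion that drives beta-lactamase from an Upstream Activator Sequence; 16 hr compound exposure at 37C, then 2 h LiveBLAzer B/G FRET substrate at room temperature, fluorescence read-out.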

[2] = molecular target: Estrogen receptor beta (Homo sapiens) (UniProt Q92731); experiment: qHTS assay to identify small molecule antagonists of the estrogen receptor beta (ER-beta) signaling pathway (AID 1259378; active means well fitted inhibition curve with a large enough effect in the signal ratio in the repeat runs, not every such curve was filed as active; inconclusive means weak or mixed curves, or effect the other way; inactive means no such curve, though single readings can be large or run the other way; the % refers to the signal ratio; further: potency means the concentration at half of the fitted maximal effect; on activity, negative = inhibition: on the % scale 0 is the no-effect control and ±100 the full control effect); conditions: ER-beta-UAS-bla HEK293T, beta-lactamase FRET ratio, 16 h; activity, negative = inhibition: at 92.4 µM (top of the series) unless noted
In short: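 ER-beta-UAS-bla HEK293T cells in 2% charcoal-stripped FBS medium treated with compound plus 1nM final 17-beta-estradiol for 16 hr at 37C. Beta-lactamase reporter read by FRET substrate fluorescence after 2 hours at room temperature.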

[3] = qHTS assay to identify small molecule agonists of the estrogen receptor beta (ER-beta) signaling pathway - cell viability counter screen (AID 1259380); conditions: ER-beta-bla HEK293T viability, CellTiter-Glo luminescence, 16 h; series mostly up to 92.4 µM; further: nearly all actives have a fitted effect of over 30% in size; further: potency means the concentration at half of the fitted maximal effect
In short: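 ER-beta-UAS-bla HEK293T cells in medium with 2% charcoal-stripped FBS, pre-incubated 6 hr, then treated 16 hr at 37C. Cytotoxicity read in the same wells by CellTiter-Glo luminescence after 30 min at room temperature.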

[4] = qHTS assay to identify small molecule agonists of the estrogen receptor alpha (ER-alpha) signaling pathway in the presence of an antagonist - cell viability counter screen (AID 1259386); conditions: VM7Luc4E2 viability, CellTiter-Fluor fluorescence, 22 h; series mostly up to 92.4 µM;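 further: potency means the concentration at half of the fitted maximal effect; cells exposed to compounds for 22 h at 37 °C before the viability read; nearly all actives have a fitted effect of over 30% in size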
In short: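 Cell viability in VM7Luc4E2 cells (endogenous full-length ER-alpha) measured by CellTiter-Fluor fluorescence in the same wells as the luciferase screen. Cells pre-cultured 5 days in charcoal-stripped serum, then treated 22 h with compounds at 15 concentrations plus 10.0nM ICI-182,780.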

[5] = qHTS assay to identify small molecule antagonists of the TGF-beta/Smad signaling pathway - cell viability counter screen (AID 1346824); conditions: SBE-bla HEK293T viability, CellTiter-Glo luminescence; series mostly up to 35.3 µM; further: nearly all actives have a fitted effect of over 50% in size; further: potency means the concentration at half of the fitted maximal effect
In short: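 SBE-bla HEK 293T cells, incubated overnight, then compound plus 0.25 ng/mL TGF-beta1 (stock added) for 5 hr at 37 C. Viability was read in the same wells by CellTiter-Glo luminescence after 30 min at room temperature.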

[6] = qHTS assay to identify small molecule agonists of the androgen receptor (AR) signaling pathway in the presence of an antagonist - cell viability counter screen (AID 1259379); conditions: MDA-kb2 viability, CellTiter-Fluor, 16 h; series mostly up to 92.4 µM; further: nearly all actives have a fitted effect of over 25% in size; further: potency means the concentration at half of the fitted maximal effect
In short: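 MDA-kb2 cells (MMTV-luciferase, AR/GR), 3,000/well, 5 h attachment, then 3.0 µM nilutamide (final) and compounds at 15 concentrations. Viability by CellTiter-Fluor fluorescence after 16 h at 37 °C, 0% CO2, in the reporter wells.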

[7] = molecular target: Thyrotropin receptor (Homo sapiens) (UniProt P16473); experiment: qHTS assay to identify small molecule antagonists of the thyroid stimulating hormone receptor (TSHR) signaling pathway (AID 1259385; calls by dose curve; further: nearly all actives have a fitted effect of over 20% in size; further: potency means the concentration at half of the fitted maximal effect; on activity change, negative = inhibition: on the % scale 0 is the no-effect control and ±100 the full control effect); conditions: TSHR-HEK293 cAMP HTRF, TSH-stimulated antagonist mode; activity change, negative = inhibition: at 92.4 µM (top of the series) unless noted
In short: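 TSHR-HEK293 cells (800/well) plated 18 h, then compounds with Ro20-1724 and TSH at 1.5 ng/mL final, 30 min at room temperature. cAMP quantified by HTRF (cAMP-d2/anti-cAMP-cryptate, 1 h); 15 concentrations in triplicate.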

[8] = molecular target: Progesterone receptor (Homo sapiens) (UniProt P06401); experiment: qHTS assay to identify small molecule antagonists of the progesterone receptor (PR) signaling pathway (AID 1346795; active means well fitted inhibition curve with a large enough effect in the signal ratio in the repeat runs, not every such curve was filed as active; inconclusive means weak or mixed curves; the % refers to the signal ratio; further: potency means the concentration at half of the fitted maximal effect); conditions: PR-UAS-bla HEK293T, beta-lactamase FRET ratio, 16 h; activity change, negative = inhibition: at 92.4 µM (top of the series) unless noted
In short: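 Antagonist mode: compounds tested against 1 nM (final) promegestone stimulation in HEK293T cells expressing PR-UAS-bla reporter, 16 hr at 37C, 5% CO2; beta-lactamase activity detected via B/G FRET substrate after 2 hr at room temperature.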

[9] = qHTS assay to identify small molecule antagonists of the TGF-beta/Smad signaling pathway (AID 1346924; active means well fitted inhibition curve with a large enough effect in the signal ratio in the repeat runs, not every such curve was filed as active; inconclusive means weak or mixed curves; the % refers to the signal ratio); conditions: SBE-bla HEK293T, TGF-beta/Smad reporter, beta-lactamase ratio; activity, negative = inhibition: at 76.8 µM (top of the series) unless noted
In short: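 SBE-bla HEK 293T cells were plated overnight, then received compound in DMSO plus TGF-beta1 (added as a 0.25 ng/mL solution) and were incubated 5 h at 37 C. Beta-lactamase reporter activity was read after 2 h at room temperature with LiveBLAzer B/G FRET substrate (ex 405, em 460/530 nm).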

[10] = molecular target: Progesterone receptor (Homo sapiens) (UniProt P06401); experiment: qHTS assay to identify small molecule agonists of the progesterone receptor (PR) signaling pathway (AID 1346784; calls by dose curve; further: nearly all actives have a fitted effect of over 30% in size; further: potency means the concentration at half of the fitted maximal effect); conditions: PR-UAS-bla HEK293T, beta-lactamase FRET ratio, 16 h; activation: at 92.4 µM (top of the series) unless noted
In short: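 Cells (PR-UAS-bla HEK 293T, GripTite) were plated in assay medium containing 2% charcoal-stripped FBS and incubated 6 hr. Test compounds in DMSO were added for 16 hr at 37C. FRET substrate was then loaded for 2 hr at room temperature before fluorescence reading.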

[11] = qHTS assay to identify small molecule antagonists of the progesterone receptor (PR) signaling pathway - cell viability counter screen (AID 1346798); conditions: PR-UAS-bla HEK293T viability, CellTiter-Glo luminescence, 16 h; series mostly up to 92.4 µM; further: potency means the concentration at half of the fitted maximal effect; nearly all actives have a fitted effect of over 50% in size
In short: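 Counter screen for cytotoxicity: viability of PR-UAS-bla HEK293T cells was measured with CellTiter-Glo luminescence following 16 hr compound exposure in the presence of R5020.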

[12] = qHTS assay to identify small molecule agonists of the progesterone receptor (PR) signaling pathway - cell viability counter screen (AID 1346799; calls by dose curve; further: nearly all actives have a fitted effect of over 45% in size; further: potency means the concentration at half of the fitted maximal effect); conditions: PR-UAS-bla HEK293T viability, CellTiter-Glo luminescence, 16 h; series mostly up to 92.4 µM
In short: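 Cells (PR-UAS-bla HEK293T) are plated at 3,000/well in 2% charcoal-stripped FBS medium, rested 6 hr, dosed and incubated 16 hr at 37C. CellTiter-Glo is then added and luminescence measured after 30 min at room temperature.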

[13] = qHTS assay to identify small molecule agonists of the TGF-beta/Smad signaling pathway (AID 1346859; active means well fitted activation curve with a large enough effect in the signal ratio in the repeat runs, not every such curve was filed as active; inconclusive means weak or mixed curves; the % refers to the signal ratio; further: on the % scale 0 is the no-effect control and ±100 the full control effect); conditions: SBE-bla HEK293T, TGF-beta/Smad beta-lactamase reporter, 5 h; activation: at 76.8 µM (top of the series) unless noted
In short: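 Reporter line: HEK 293T with stably integrated SBE-controlled beta-lactamase. Compound exposure lasts 5 hr at 37 C and 5% CO2; substrate loading follows for 2 hr at room temperature, with emission read at 460 and 530 nm.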

[14] = qHTS assay to identify small molecule antagonists of the estrogen receptor beta (ER-beta) signaling pathway - cell viability counter screen (AID 1259382); conditions: ER-beta-UAS-bla HEK293T viability, CellTiter-Glo luminescence, 16 h; series mostly up to 92.4 µM; further: potency means the concentration at half of the fitted maximal effect; nearly all actives have a fitted effect of over 55% in size
In short: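 ER-beta-UAS-bla HEK293T cells in 2% charcoal-stripped FBS medium, treated with compound plus 1 nM 17-beta-estradiol for 16 h at 37C. Viability read by CellTiter-Glo luminescence after 30 min at room temperature in the same wells.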

[15] = qHTS assay to identify small molecule agonists of the TGF-beta/Smad signaling pathway - cell viability counter screen (AID 1346829); conditions: SBE-bla HEK293T viability, CellTiter-Glo luminescence, 5 h; series mostly up to 76.8 µM; further: potency means the concentration at half of the fitted maximal effect; nearly all actives have a fitted effect of over 45% in size
In short: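 SBE-bla HEK 293T cells plated overnight, compound exposure 5 hr at 37 C. Viability read in the same wells by CellTiter-Glo luminescence after 30 min at room temperature, following the beta-lactamase read.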

[16] = molecular target: Estrogen receptor (Homo sapiens) (UniProt P03372); experiment: qHTS assay to identify small molecule agonists of the estrogen receptor alpha (ER-alpha) signaling pathway in the presence of an antagonist (AID 1259383; calls by dose curve; further: potency means the concentration at half of the fitted maximal effect; nearly all actives have a fitted effect of over 15% in size); conditions: VM7Luc4E2 cells, ERE-luciferase, +ICI-182,780, 22 h; series mostly up to 92.4 µM
In short: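 VM7Luc4E2 cells express endogenous full-length ER-alpha with an ERE-luciferase reporter and were hormone-deprived for 5 days. Compounds at 15 concentrations were added with 10.0nM ICI-182,780 for 22hr at 37C. Luminescence was read with ONE-Glo.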
Tags describe the fitted curve by direction and shape or compound fluorescence and quenching.

Sequence of UniProt P06401 (P06401 whole entry, looked up): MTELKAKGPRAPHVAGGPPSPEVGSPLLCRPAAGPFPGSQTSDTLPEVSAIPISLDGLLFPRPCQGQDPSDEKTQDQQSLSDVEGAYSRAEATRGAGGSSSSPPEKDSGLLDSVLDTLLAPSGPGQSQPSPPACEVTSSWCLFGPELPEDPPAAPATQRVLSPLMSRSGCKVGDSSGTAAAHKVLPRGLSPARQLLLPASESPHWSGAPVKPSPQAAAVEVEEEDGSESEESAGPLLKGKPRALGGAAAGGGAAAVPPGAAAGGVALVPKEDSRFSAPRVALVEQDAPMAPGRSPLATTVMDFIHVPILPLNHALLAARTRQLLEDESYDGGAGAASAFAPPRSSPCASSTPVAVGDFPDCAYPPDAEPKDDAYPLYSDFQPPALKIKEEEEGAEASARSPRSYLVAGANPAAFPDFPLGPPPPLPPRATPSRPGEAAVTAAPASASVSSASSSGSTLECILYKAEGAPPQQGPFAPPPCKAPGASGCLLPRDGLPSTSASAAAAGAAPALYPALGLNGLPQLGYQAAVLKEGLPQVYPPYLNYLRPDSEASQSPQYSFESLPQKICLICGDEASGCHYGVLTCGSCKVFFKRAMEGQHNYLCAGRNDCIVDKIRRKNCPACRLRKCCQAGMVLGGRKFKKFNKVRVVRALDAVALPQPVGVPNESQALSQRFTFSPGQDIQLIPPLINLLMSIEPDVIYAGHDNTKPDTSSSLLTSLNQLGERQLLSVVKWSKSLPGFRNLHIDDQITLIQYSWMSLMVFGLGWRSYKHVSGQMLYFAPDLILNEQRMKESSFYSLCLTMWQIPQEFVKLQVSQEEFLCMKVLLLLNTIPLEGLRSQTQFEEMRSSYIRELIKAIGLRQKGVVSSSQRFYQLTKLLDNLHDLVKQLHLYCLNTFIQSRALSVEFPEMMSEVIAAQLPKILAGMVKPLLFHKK
Sequence of UniProt P16473 (P16473 whole entry, looked up): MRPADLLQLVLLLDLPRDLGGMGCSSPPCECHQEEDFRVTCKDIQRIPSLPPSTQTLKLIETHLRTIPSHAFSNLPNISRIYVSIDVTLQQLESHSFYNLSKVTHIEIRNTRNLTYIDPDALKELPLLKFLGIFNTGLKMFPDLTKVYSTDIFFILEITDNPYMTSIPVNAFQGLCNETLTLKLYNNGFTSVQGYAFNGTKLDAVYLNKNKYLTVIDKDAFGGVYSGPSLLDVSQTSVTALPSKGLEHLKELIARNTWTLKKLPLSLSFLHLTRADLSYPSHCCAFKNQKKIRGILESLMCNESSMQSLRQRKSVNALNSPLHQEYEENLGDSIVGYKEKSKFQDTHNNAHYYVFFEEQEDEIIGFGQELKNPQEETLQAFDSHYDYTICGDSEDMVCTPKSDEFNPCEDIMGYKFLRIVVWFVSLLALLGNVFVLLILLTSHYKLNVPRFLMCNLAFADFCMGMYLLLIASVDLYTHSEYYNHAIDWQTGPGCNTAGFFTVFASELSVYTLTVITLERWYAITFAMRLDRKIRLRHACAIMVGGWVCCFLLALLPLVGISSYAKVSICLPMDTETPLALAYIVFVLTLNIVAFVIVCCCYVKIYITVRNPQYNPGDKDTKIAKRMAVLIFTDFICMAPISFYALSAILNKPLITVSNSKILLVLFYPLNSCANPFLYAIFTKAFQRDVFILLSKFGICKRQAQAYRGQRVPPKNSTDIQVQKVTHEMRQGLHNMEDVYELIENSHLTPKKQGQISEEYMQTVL
Sequence of UniProt Q92731 (Q92731 whole entry, looked up, the tested form may be a part): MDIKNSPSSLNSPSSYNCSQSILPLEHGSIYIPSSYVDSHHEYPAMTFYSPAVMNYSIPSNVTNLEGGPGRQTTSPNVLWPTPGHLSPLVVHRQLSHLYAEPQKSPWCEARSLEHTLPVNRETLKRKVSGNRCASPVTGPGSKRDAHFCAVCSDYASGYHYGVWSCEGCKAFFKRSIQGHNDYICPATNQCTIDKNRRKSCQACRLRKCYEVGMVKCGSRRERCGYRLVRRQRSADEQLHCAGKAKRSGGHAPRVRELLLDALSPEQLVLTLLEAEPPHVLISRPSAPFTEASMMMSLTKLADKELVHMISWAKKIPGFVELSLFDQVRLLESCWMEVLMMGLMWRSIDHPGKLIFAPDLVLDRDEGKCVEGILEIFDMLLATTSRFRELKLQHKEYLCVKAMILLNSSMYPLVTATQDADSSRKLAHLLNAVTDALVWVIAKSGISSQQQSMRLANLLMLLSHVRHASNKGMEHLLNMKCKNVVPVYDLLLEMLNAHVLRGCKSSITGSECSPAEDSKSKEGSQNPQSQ
Sequence of UniProt P03372 (P03372 whole entry, looked up): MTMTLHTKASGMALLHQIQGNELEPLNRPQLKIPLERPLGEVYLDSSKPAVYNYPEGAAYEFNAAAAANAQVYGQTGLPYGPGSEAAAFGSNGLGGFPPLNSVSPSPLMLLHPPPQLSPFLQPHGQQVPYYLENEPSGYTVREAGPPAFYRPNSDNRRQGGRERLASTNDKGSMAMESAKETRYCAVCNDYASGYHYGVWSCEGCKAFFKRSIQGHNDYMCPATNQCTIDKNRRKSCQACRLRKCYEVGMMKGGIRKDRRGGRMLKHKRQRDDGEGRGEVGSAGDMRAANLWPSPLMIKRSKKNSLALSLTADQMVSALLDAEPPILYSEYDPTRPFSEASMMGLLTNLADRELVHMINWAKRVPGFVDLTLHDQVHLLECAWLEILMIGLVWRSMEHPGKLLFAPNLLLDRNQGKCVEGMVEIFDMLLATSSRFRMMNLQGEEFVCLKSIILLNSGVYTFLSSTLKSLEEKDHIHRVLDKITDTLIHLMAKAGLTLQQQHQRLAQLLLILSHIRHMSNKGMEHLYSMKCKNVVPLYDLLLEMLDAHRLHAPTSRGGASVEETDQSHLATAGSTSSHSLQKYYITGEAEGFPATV

CC1CN(c2ccccc2)NC1=O (stereo unspecified)
inconclusive: Potency [1] 27.3 µM [rising, full curve] | Potency [2] 30.6 µM [rising, full curve] | Potency [3] 30.6 µM [cytotoxic, partial curve]

CC(C)(O)c1ccc(CNC(=O)c2cccnc2Oc2ccc3nonc3c2)cc1
inactive: Potency [1] | Potency [5]
inconclusive: activity, negative = inhibition [2] -26.6% | Potency [3] 61.1 µM [cytotoxic, single point] | Potency [4] 68.6 µM [cytotoxic, partial curve, poor fit]

C[C@@H]1CN(CCCn2c3ccccc3c3ccccc32)C[C@H](C)N1
active: Potency [2] 13.3 µM | Potency [7] 33.5 µM | Potency [8] 29.8 µM
inactive: Potency [1]
inconclusive: Potency [6] 29.8 µM [cytotoxic, single point] | activity, negative = inhibition [9] -13.3% [at 35.3 µM]

CC(=O)Oc1ccc2c(c1)CC[C@@H]1[C@@H]2CC[C@]2(C)[C@@H](O)CC[C@@H]12
inactive: Potency [6] | Potency [7] | Potency [12] | Potency [13]
inconclusive: Potency [2] 0.0038 µM [activator] | activation [10] 23.2% [at 42.5 µM] | Potency [8] 2.98 µM [rising, single point] | Potency [11] 29.8 µM
active: Potency [1] 0.0008 µM

CN1CCCC(CC2c3ccccc3Sc3ccccc32)C1 (stereo unspecified)
active: Potency [2] 13.3 µM | Potency [7] 29.8 µM | Potency [11] 18.8 µM | Potency [12] 18.8 µM
inconclusive: Potency [1] 33.5 µM [rising, single point] | Potency [6] 33.5 µM [cytotoxic, single point] | Potency [8] 18.8 µM [falling, partial curve] | activity, negative = inhibition [9] -13.5% [at 35.3 µM]

CN[C@H]1CC[C@@H](c2ccc(Cl)c(Cl)c2)c2ccccc21
active: Potency [3] 29.8 µM | Potency [14] 18.8 µM
inconclusive: Potency [1] 13.3 µM [rising, full curve] | Potency [2] 33.5 µM [rising, single point] | Potency [8] 26.6 µM | Potency [11] 8.41 µM [cytotoxic, partial curve, poor fit] | Potency [15] 26.8 µM [cytotoxic, single point] | activity, negative = inhibition [9] -29.6% [at 35.3 µM]

O=C(Nc1ncc([N+](=O)[O-])s1)c1cccs1
inconclusive: Potency [1] 0.119 µM [falling, single point] | activity, negative = inhibition [2] -24.6% [at 42.5 µM] | Potency [3] 15 µM [cytotoxic, partial curve] | Potency [14] 11.9 µM [cytotoxic, partial curve] | Potency [16] 1.19 µM [activator, partial curve] | activity change, negative = inhibition [8] -22.2% [at 42.5 µM] | activity, negative = inhibition [9] -52% [at 35.3 µM]
active: Potency [4] 26.6 µM | Potency [5] 10.7 µM | Potency [15] 15.1 µM

CNC(=O)c1cc(Oc2ccc(NC(=O)Nc3ccc(Cl)c(C(F)(F)F)c3)cc2)ccn1
inconclusive: activation [1] -11.8% [at 42.5 µM] | Potency [14] 9.44 µM [cytotoxic, partial curve, poor fit] | Potency [4] 33.5 µM [cytotoxic, single point] | Potency [10] 21.1 µM [cytotoxic, partial curve] | Potency [12] 37.6 µM [cytotoxic, partial curve, poor fit] | Potency [5] 21.3 µM [cytotoxic, partial curve, poor fit]
active: Potency [2] 9.44 µM | Potency [6] 29.8 µM | Potency [8] 11.9 µM | Potency [11] 33.5 µM

Nc1nc2ccccc2[nH]1
inconclusive: Potency [1] 30.7 µM [falling, partial curve] and 30.3 µM [falling, partial curve] | Potency [2] 19.4 µM [falling, partial curve, poor fit] and 67.8 µM [falling, partial curve, poor fit] | activity change, negative = inhibition [8] 6.01%
inactive: Potency [3]

Cc1c(C)c2c(c(C)c1OC(=O)CCC(=O)O)CC[C@@](C)(CCC[C@H](C)CCC[C@H](C)CCCC(C)C)O2
active: Potency [3] 1.95 µM
inconclusive: Potency [1] 3.9 µM [rising, full curve] | Potency [2] 5.51 µM [rising, partial curve] | Potency [14] 4.91 µM [cytotoxic, full curve] | Potency [12] 1.1 µM [cytotoxic, full curve]

CCOC(=O)Cn1cccc1-c1nc(-c2ccc(OC)cc2)c(-c2ccc(OC)cc2)s1
inconclusive: activation [1] 7.63% [at 42.5 µM] | activity, negative = inhibition [2] 2.33% [at 42.5 µM] | Potency [3] 11.9 µM [cytotoxic, partial curve, poor fit]
